Reference: the supplement of paper PMC8728848
Some of the results follow.

Tests used:
Assay in all cases: glycan array binding signal (z-score within array); higher = stronger binding
Settings in all cases: glycan notation: IUPAC condensed, linker removed
[1] = biological target: Gal(b1-4)GlcNAc(b1-2)[Gal(b1-4)GlcNAc(b1-6)]Man(a1-6)[GlcNAc(b1-4)][Gal(b1-4)GlcNAc(b1-2)[Gal(b1-4)GlcNAc(b1-4)]Man(a1-3)]Man(b1-4)GlcNAc(b1-4)[Fuc(a1-6)]GlcNAc
How it was run: (§1)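 The binding signal is a Z-score computed within each array. Data were drawn from 3228 arrays in the Consortium for Functional Glycomics database, restricted to those with a known protein sequence. Scores were averaged over arrays of the same protein sequence at different concentrations or buffers, and over linkers, and negative values can be taken as non-binding.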

[2] = biological target: Gal(b1-4)GlcNAc(b1-3)Gal(b1-3)GalNAc
How it was run: as §1

[3] = biological target: Gal(b1-4)GlcNAc(b1-3)Gal(b1-3)GlcNAc
How it was run: as §1

[4] = biological target: Gal(b1-4)GlcNAc(b1-3)Gal(b1-4)Glc
How it was run: as §1

[5] = biological target: Gal(b1-4)GlcNAc(b1-3)Gal(b1-4)GlcNAc
How it was run: as §1

[6] = biological target: Gal(b1-4)GlcNAc(b1-3)Gal(b1-4)GlcNAc(b1-2)Man(a1-3)[Gal(b1-4)GlcNAc(b1-3)Gal(b1-4)GlcNAc(b1-2)Man(a1-6)]Man(b1-4)GlcNAc(b1-4)GlcNAc
How it was run: as §1

[7] = biological target: Gal(b1-4)GlcNAc(b1-3)Gal(b1-4)GlcNAc(b1-2)Man(a1-3)[Gal(b1-4)GlcNAc(b1-3)Gal(b1-4)GlcNAc(b1-2)Man(a1-6)]Man(b1-4)GlcNAc(b1-4)[Fuc(a1-6)]GlcNAc
How it was run: as §1

[8] = biological target: Gal(b1-4)GlcNAc(b1-3)Gal(b1-4)GlcNAc(b1-2)[Gal(b1-4)GlcNAc(b1-3)Gal(b1-4)GlcNAc(b1-6)]Man(a1-6)[Gal(b1-4)GlcNAc(b1-3)Gal(b1-4)GlcNAc(b1-2)Man(a1-3)]Man(b1-4)GlcNAc(b1-4)GlcNAc
How it was run: as §1

[9] = biological target: Gal(b1-4)GlcNAc(b1-3)Gal(b1-4)GlcNAc(b1-2)[Gal(b1-4)GlcNAc(b1-3)Gal(b1-4)GlcNAc(b1-6)]Man(a1-6)[Gal(b1-4)GlcNAc(b1-3)Gal(b1-4)GlcNAc(b1-2)Man(a1-3)]Man(b1-4)GlcNAc(b1-4)[Fuc(a1-6)]GlcNAc
How it was run: as §1

[10] = biological target: Gal(b1-4)GlcNAc(b1-3)Gal(b1-4)GlcNAc(b1-3)Gal(b1-4)GlcNAc
How it was run: as §1

[11] = biological target: Gal(b1-4)GlcNAc(b1-3)Gal(b1-4)GlcNAc(b1-3)Gal(b1-4)GlcNAc(b1-2)Man(a1-3)[Gal(b1-4)GlcNAc(b1-3)Gal(b1-4)GlcNAc(b1-3)Gal(b1-4)GlcNAc(b1-2)Man(a1-6)]Man(b1-4)GlcNAc(b1-4)GlcNAc
How it was run: as §1

[12] = biological target: Gal(b1-4)GlcNAc(b1-3)Gal(b1-4)GlcNAc(b1-3)Gal(b1-4)GlcNAc(b1-2)Man(a1-3)[Gal(b1-4)GlcNAc(b1-3)Gal(b1-4)GlcNAc(b1-3)Gal(b1-4)GlcNAc(b1-2)Man(a1-6)]Man(b1-4)GlcNAc(b1-4)[Fuc(a1-6)]GlcNAc
How it was run: as §1

[13] = biological target: Gal(b1-4)GlcNAc(b1-3)Gal(b1-4)GlcNAc(b1-3)Gal(b1-4)GlcNAc(b1-2)[Gal(b1-4)GlcNAc(b1-3)Gal(b1-4)GlcNAc(b1-3)Gal(b1-4)GlcNAc(b1-6)]Man(a1-6)[Gal(b1-4)GlcNAc(b1-3)Gal(b1-4)GlcNAc(b1-3)Gal(b1-4)GlcNAc(b1-2)Man(a1-3)]Man(b1-4)GlcNAc(b1-4)[Fuc(a1-6)]GlcNAc
How it was run: as §1

[14] = biological target: Gal(b1-4)GlcNAc(b1-3)Gal(b1-4)GlcNAc(b1-3)Gal(b1-4)GlcNAc(b1-3)Gal(b1-4)GlcNAc(b1-2)Man(a1-3)[Gal(b1-4)GlcNAc(b1-3)Gal(b1-4)GlcNAc(b1-3)Gal(b1-4)GlcNAc(b1-3)Gal(b1-4)GlcNAc(b1-2)Man(a1-6)]Man(b1-4)GlcNAc(b1-4)GlcNAc
How it was run: as §1

[15] = biological target: Gal(b1-4)GlcNAc(b1-3)Gal(b1-4)GlcNAc(b1-3)Gal(b1-4)GlcNAc(b1-3)Gal(b1-4)GlcNAc(b1-2)Man(a1-3)[Gal(b1-4)GlcNAc(b1-3)Gal(b1-4)GlcNAc(b1-3)Gal(b1-4)GlcNAc(b1-3)Gal(b1-4)GlcNAc(b1-2)Man(a1-6)]Man(b1-4)GlcNAc(b1-4)[Fuc(a1-6)]GlcNAc
How it was run: as §1

[16] = biological target: Gal(b1-4)GlcNAc(b1-3)Gal(b1-4)GlcNAc(b1-3)Gal(b1-4)GlcNAc(b1-3)Gal(b1-4)GlcNAc(b1-2)[Gal(b1-4)GlcNAc(b1-3)Gal(b1-4)GlcNAc(b1-3)Gal(b1-4)GlcNAc(b1-3)Gal(b1-4)GlcNAc(b1-6)]Man(a1-6)[Gal(b1-4)GlcNAc(b1-3)Gal(b1-4)GlcNAc(b1-3)Gal(b1-4)GlcNAc(b1-3)Gal(b1-4)GlcNAc(b1-2)Man(a1-3)]Man(b1-4)GlcNAc(b1-4)[Fuc(a1-6)]GlcNAc
How it was run: as §1

[17] = biological target: Gal(b1-4)GlcNAc(b1-3)Gal(b1-4)GlcNAc(b1-3)Gal(b1-4)GlcNAc(b1-3)Gal(b1-4)GlcNAc(b1-3)Gal(b1-4)GlcNAc(b1-2)Man(a1-3)[Gal(b1-4)GlcNAc(b1-3)Gal(b1-4)GlcNAc(b1-3)Gal(b1-4)GlcNAc(b1-3)Gal(b1-4)GlcNAc(b1-3)Gal(b1-4)GlcNAc(b1-2)Man(a1-6)]Man(b1-4)GlcNAc(b1-4)GlcNAc
How it was run: as §1

[18] = biological target: Gal(b1-4)GlcNAc(b1-3)Gal(b1-4)GlcNAc(b1-3)Gal(b1-4)GlcNAc(b1-3)Gal(b1-4)GlcNAc(b1-3)Gal(b1-4)GlcNAc(b1-2)Man(a1-3)[Gal(b1-4)GlcNAc(b1-3)Gal(b1-4)GlcNAc(b1-3)Gal(b1-4)GlcNAc(b1-3)Gal(b1-4)GlcNAc(b1-3)Gal(b1-4)GlcNAc(b1-2)Man(a1-6)]Man(b1-4)GlcNAc(b1-4)[Fuc(a1-6)]GlcNAc
How it was run: as §1

[19] = biological target: Gal(b1-4)GlcNAc(b1-3)Gal(b1-4)GlcNAc(b1-3)Gal(b1-4)GlcNAc(b1-3)Gal(b1-4)GlcNAc(b1-3)Gal(b1-4)GlcNAc(b1-2)[Gal(b1-4)GlcNAc(b1-3)Gal(b1-4)GlcNAc(b1-3)Gal(b1-4)GlcNAc(b1-3)Gal(b1-4)GlcNAc(b1-3)Gal(b1-4)GlcNAc(b1-6)]Man(a1-6)[Gal(b1-4)GlcNAc(b1-3)Gal(b1-4)GlcNAc(b1-3)Gal(b1-4)GlcNAc(b1-3)Gal(b1-4)GlcNAc(b1-3)Gal(b1-4)GlcNAc(b1-2)Man(a1-3)]Man(b1-4)GlcNAc(b1-4)[Fuc(a1-6)]GlcNAc
How it was run: as §1

[20] = biological target: Gal(b1-4)GlcNAc(b1-3)Gal(b1-4)GlcNAc(b1-3)Gal(b1-4)GlcNAc(b1-3)Gal(b1-4)GlcNAc(b1-3)Gal(b1-4)GlcNAc(b1-3)Gal(b1-4)GlcNAc(b1-2)Man(a1-3)[Gal(b1-4)GlcNAc(b1-3)Gal(b1-4)GlcNAc(b1-3)Gal(b1-4)GlcNAc(b1-3)Gal(b1-4)GlcNAc(b1-3)Gal(b1-4)GlcNAc(b1-3)Gal(b1-4)GlcNAc(b1-2)Man(a1-6)]Man(b1-4)GlcNAc(b1-4)GlcNAc
How it was run: as §1

[21] = biological target: Gal(b1-4)GlcNAc(b1-3)Gal(b1-4)GlcNAc(b1-3)GalNAc
How it was run: as §1

[22] = biological target: Gal(b1-4)GlcNAc(b1-3)Gal(b1-4)GlcNAc(b1-3)[Gal(b1-4)GlcNAc(b1-3)Gal(b1-4)GlcNAc(b1-6)]GalNAc
How it was run: as §1

[23] = biological target: Gal(b1-4)GlcNAc(b1-3)Gal(b1-4)GlcNAc(b1-6)[Gal(b1-3)]GalNAc
How it was run: as §1

[24] = biological target: Gal(b1-4)GlcNAc(b1-3)Gal(b1-4)[Fuc(a1-3)]GlcNAc(b1-3)Gal(b1-4)[Fuc(a1-3)]GlcNAc
How it was run: as §1

[25] = biological target: Gal(b1-4)GlcNAc(b1-3)GalNAc
How it was run: as §1

[26] = biological target: Gal(b1-4)GlcNAc(b1-3)[Fuc(a1-3)GlcNAc(b1-6)]Gal(b1-4)Glc
How it was run: as §1

[27] = biological target: Gal(b1-4)GlcNAc(b1-3)[Gal(b1-4)GlcNAc(b1-6)]Gal(b1-4)GlcNAc
How it was run: as §1

[28] = biological target: Gal(b1-4)GlcNAc(b1-3)[Gal(b1-4)GlcNAc(b1-6)]GalNAc
How it was run: as §1

[29] = biological target: Gal(b1-4)GlcNAc(b1-3)[GlcNAc(b1-6)]Gal(b1-4)GlcNAc
How it was run: as §1

[30] = biological target: Gal(b1-4)GlcNAc(b1-6)Gal(b1-4)GlcNAc
How it was run: as §1

[31] = biological target: Gal(b1-4)GlcNAc(b1-6)GalNAc
How it was run: as §1

[32] = biological target: Gal(b1-4)GlcNAc(b1-6)[Gal(b1-3)]GalNAc
How it was run: as §1

[33] = biological target: Gal(b1-4)GlcNAc(b1-6)[Gal(b1-3)]GlcNAc
How it was run: as §1

[34] = biological target: Gal(b1-4)GlcNAc(b1-6)[Gal(b1-4)GlcNAc(b1-3)]GalNAc
How it was run: as §1

[35] = biological target: Gal(b1-4)GlcNAc6P
How it was run: as §1

[36] = biological target: Gal(b1-6)Gal
How it was run: as §1

[37] = biological target: Gal3S(b1-3)GalNAc
How it was run: as §1

[38] = biological target: Gal3S(b1-3)GlcNAc
How it was run: as §1

[39] = biological target: Gal3S(b1-3)[Fuc(a1-4)]GlcNAc
How it was run: as §1

[40] = biological target: Gal3S(b1-4)Glc
How it was run: as §1

[41] = biological target: Gal3S(b1-4)Glc6S
How it was run: as §1

[42] = biological target: Gal3S(b1-4)GlcNAc
How it was run: as §1

[43] = biological target: Gal3S(b1-4)GlcNAc6S
How it was run: as §1

[44] = biological target: Gal3S(b1-4)[Fuc(a1-3)]Glc6S
How it was run: as §1

[45] = biological target: Gal3S(b1-4)[Fuc(a1-3)]GlcNAc
How it was run: as §1

B1: AAA (Anguilla anguilla), Q7SIC1 (protein)
chain: VIPEGYTQENVAVRGKATQSAQLRGEHAANSEASNAIDGNRDSNFYHGSCTHSSGQANPWWRVDLLQVYTITSVTITNRGDCCGERISGAEINIGQHLASNGVNNPECSVIGSMATGETKTFHCPAPMIGRYVVTYLPTSESLHLCEVEVNVDKPAAA
glycan array binding signal (z-score) [1]: -0.257 | glycan array binding signal (z-score) [2]: -0.111 | glycan array binding signal (z-score) [3]: 0.13 | glycan array binding signal (z-score) [4]: -0.16 | glycan array binding signal (z-score) [5]: -0.248 | glycan array binding signal (z-score) [6]: 0.804 | glycan array binding signal (z-score) [7]: 0.17 | glycan array binding signal (z-score) [8]: 0.103 | glycan array binding signal (z-score) [9]: -0.092 | glycan array binding signal (z-score) [10]: -0.301 | glycan array binding signal (z-score) [11]: 1.2 | glycan array binding signal (z-score) [12]: -0.065 | glycan array binding signal (z-score) [13]: -0.088 | glycan array binding signal (z-score) [14]: -0.104 | glycan array binding signal (z-score) [15]: 0.031 | glycan array binding signal (z-score) [16]: -0.123 | glycan array binding signal (z-score) [17]: -0.047 | glycan array binding signal (z-score) [18]: -0.123 | glycan array binding signal (z-score) [19]: -0.032 | glycan array binding signal (z-score) [20]: -0.1 | glycan array binding signal (z-score) [21]: 1.02 | glycan array binding signal (z-score) [22]: 1.43 | glycan array binding signal (z-score) [23]: 0.717 | glycan array binding signal (z-score) [24]: -0.016 | glycan array binding signal (z-score) [25]: -0.168 | glycan array binding signal (z-score) [26]: 0.148 | glycan array binding signal (z-score) [27]: -0.163 | glycan array binding signal (z-score) [28]: 0.003 | glycan array binding signal (z-score) [29]: -0.102 | glycan array binding signal (z-score) [30]: -0.313 | glycan array binding signal (z-score) [31]: 0.062 | glycan array binding signal (z-score) [32]: 0.115 | glycan array binding signal (z-score) [33]: -0.248 | glycan array binding signal (z-score) [34]: -0.023 | glycan array binding signal (z-score) [35]: -0.219 | glycan array binding signal (z-score) [36]: -0.157 | glycan array binding signal (z-score) [37]: -0.191 | glycan array binding signal (z-score) [38]: -0.151 | glycan array binding signal (z-score) [39]: -0.129 | glycan array binding signal (z-score) [40]: -0.117 | glycan array binding signal (z-score) [41]: -0.043 | glycan array binding signal (z-score) [42]: -0.389 | glycan array binding signal (z-score) [43]: 1.01 | glycan array binding signal (z-score) [44]: 0.158 | glycan array binding signal (z-score) [45]: -0.194
